Out of some 43,000 compounds screened, about 200 (0.47%) were called active. Another 12% or so got no clear call; they are omitted. Calls follow the shape of the dose curve; as a rule, active = well fitted cell-killing curve with a large enough effect; inconclusive = small, poorly fitted or top-dose-only effect, or effect the other way; inactive = flat fitted curve, though single readings scatter. Some of the results follow.
assay: Cell viability qHTS assay in S16 Pmp22-F2sN cells; conditions: S16 Pmp22-F2sN Schwann cells (luciferase reporters placed in the Pmp22 gene) viability, CellTiter-Glo, 24 h; series mostly up to 57.5 µM; activity change, negative = cytotoxicity: at the top concentration; also: nearly all actives have a fitted effect of over 65% in size
Method in brief: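 S16 Schwann cells carrying the Pmp22-F2sN reporter, seeded in 1536-well format, were exposed to library compounds for 24 h at 37C. Viability was read as CellTiter-Glo luminescence after 15 min at room temperature.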
% is scaled to controls: 0 for no effect and ±100 for the full control effect.

| SMILES | activity change, negative = cytotoxicity |
| --- | --- |
| COc1ccc(-n2cc(C(=O)OCc3ccc(Cl)cc3)c3ccccc3c2=O)cc1 | inactive: 0.202% |
| CN(C)c1ccc(C(CNS(=O)(=O)c2ccc(F)cc2)N2CCOCC2)cc1 (configuration not stated) | inactive: 9.88% |
| Cn1c(=O)c(=O)n(C)c2cc(S(=O)(=O)N3CCCC3C(=O)Nc3ccc(F)cc3)ccc21 (configuration not stated) | inactive: -17% |
| CCOc1ccc(CNC(=O)Cn2ccc3cc(S(=O)(=O)N4CCCCC4)ccc32)cc1 | inactive: -20.8% |
| Cc1ccc(NC(=O)CSc2ccc(-c3ccccn3)nn2)cc1F | inactive: -22.1% |
| COc1ccc(S(=O)(=O)N(CC(=O)NCCSCc2ccccc2)c2ccc(C)cc2)cc1 | inactive: 23.5% |
| CCC(C(=O)Nc1ccc(C(=O)OC)cc1)n1nc(-c2ccc(C)c(C)c2)ccc1=O (configuration not stated) | inactive: -10% |
| Cc1c(C(=O)OC2CCCCCC2)[nH]c2c1C(=O)CC(c1ccc(N(C)C)cc1)C2 (configuration not stated) | inactive: 17.4% |
| COc1ccc(NC(=O)C2CCN(S(=O)(=O)c3ccc4c(c3)CCCC(=O)N4)CC2)c(OC)c1 | inactive: 7.08% |
| CCOc1ccc(Nc2sc(C(=O)c3cccc(OC)c3)c(N)c2S(=O)(=O)c2ccccc2)cc1 | inactive: -3.66% |
| COc1ccc(C)cc1NC(=O)Nc1ccccc1OCc1cc(=O)n2ccccc2n1 | inactive: 20.8% |
| CCCCNC(=O)c1cnc2sc(N3CCCCCC3)nn2c1=O | inactive: -3.58% |
| Cc1cc(C)c(NC(=O)C(=O)NCC(c2cccnc2)N2CCN(Cc3ccccc3)CC2)c(C)c1 (configuration not stated) | inactive: -0.719% |
| Cc1ccccc1-c1noc(-c2ccc(N3CCN(C)CC3)c([N+](=O)[O-])c2)n1 | inactive: 18% |
| COc1cccc(NC(=O)CSC2=Nc3ccccc3C3=NC(CC(=O)NCc4ccc5c(c4)OCO5)C(=O)N23)c1 (configuration not stated) | inactive: -21.7% |
| COc1ccc(CC(=O)N(Cc2nc(-c3ccc(C)cc3)no2)C(C)C)cc1 | inactive: 8.03% |
| COc1ccc2c(c1)c1c(c(=O)n(-c3ccccc3)c(=O)n1CC(=O)NCc1ccc(C)cc1)n2C | inactive: -0.973% |
| CSc1nn(Cc2cccc(Cl)c2)c(N(C(C)=O)C(C)=O)c1S(=O)(=O)c1ccccc1 | inactive: 18.3% |
| CCOc1ccc(CCNC(=O)CSc2nnnn2-c2ccc(C)cc2C)cc1OCC | inactive: 3.2% |
| CCOC(=O)C1=C(CN(C)Cc2ccccc2)NC(=O)NC1c1ccc(OC)cc1 (configuration not stated) | inactive: 11.5% |
| O=C(NCC(c1cccnc1)N1CCc2ccccc21)c1ccc(F)cc1 (configuration not stated) | inactive: -10.9% |
| CCOc1ccc(NC(=O)N(C)CCc2c(C)nn(C)c2C)cc1 | inactive: 1.46% |
| CCCCOc1ccccc1C(=O)N(Cc1cccc(F)c1)C1CCS(=O)(=O)C1 (configuration not stated) | inactive: 5.98% |
| CC(=O)c1cccc(NC(=O)Cc2noc3ccccc23)c1 | inactive: -19.2% |

| SMILES | activity change, negative = cytotoxicity |
| --- | --- |
| CC(C)CCNC(=O)CN1C(=O)c2cccnc2Sc2ccccc21 | inactive: 2.93% |
| CCS(=O)(=O)c1ccccc1C(=O)Nc1ccc(-c2nc3ccccc3s2)cc1 | inactive: 13.5% |
| COc1ccc(CC(=O)Nc2cc(-c3cn4cccnc4n3)ccc2OC)cc1 | inactive: 1.58% |
| O=C(Nc1ccc2nc(SCCOc3ccccc3Cl)sc2c1)c1ccc2c(c1)OCO2 | inactive: -1.69% |
| CCCCC(=O)NC1(C(F)(F)F)C(=O)Nc2c1c(=O)[nH]c(=O)n2-c1ccc(C)c(C)c1 (configuration not stated) | inactive: 12.3% |
| CN(C)c1ccc(NC(=O)CSc2nc3ccsc3c(=O)n2CCCCCC(=O)O)cc1 | inactive: -0.705% |
| COc1cc(OC)c(NC(=O)C(Cc2ccccc2)NS(=O)(=O)c2cccc3nsnc23)cc1Cl (configuration not stated) | inactive: -15.5% |
| Cc1c(C(=O)N(Cc2ccco2)Cc2ccccc2Cl)oc2ccc(F)cc12 | inactive: -25.5% |
| COc1ccc(OC(C)C(=O)NCc2nc(-c3cccc(C)c3)no2)cc1 (configuration not stated) | inactive: -21.2% |
| Cc1oc(-c2ccccc2Cl)nc1CS(=O)(=O)CC(=O)NC(C)c1ccccc1 (configuration not stated) | inactive: 1.69% |
| Cc1ccc2onc(CNC(=O)NCc3ccccc3)c2c1 | inactive: 3.68% |
| CCC(C(=O)Nc1ccccc1OC)n1c(C(=O)OC)cc2sc(Cl)cc21 (configuration not stated) | inactive: -12.9% |
| CCOc1ccccc1CNC(=O)CSc1nnc(C)c2c(C)n(-c3ccccc3)nc12 | inactive: 0.498% |
| CCOCCCNC(=O)c1ccc2c(=O)n(CCc3ccc(OC)c(OC)c3)c(=O)[nH]c2c1 | inactive: -4.41% |
| CC(=O)N1CCc2cc(S(=O)(=O)NC(CC(C)C)C(=O)NCCc3cccc(C)c3)ccc21 (configuration not stated) | inactive: -8.97% |
| Cc1ccc(CN(C(=O)COc2ccc([N+](=O)[O-])cc2)c2ccccn2)o1 | inactive: 2.74% |
| CCC1CCCCN1S(=O)(=O)c1cc2c(cc1C)NC(=O)CO2 (configuration not stated) | inactive: -23.3% |
| CC(=O)c1ccc(NC(=O)CSc2ccc3nnc(CCNS(=O)(=O)c4ccc(C)cc4)n3n2)cc1 | inactive: 17.6% |
| Cc1ccc(Nc2ncc(C(=O)Nc3ccc(F)cc3F)c3ccccc23)cc1Cl | inactive: -0.562% |
| CC(=O)c1cccc(NC(=O)C2CCN(S(=O)(=O)c3ccccc3)CC2)c1 | inactive: 3.47% |
| COc1ccc(CNC(=O)c2nn(C)c3c2CS(=O)(=O)c2ccccc2-3)cc1 | inactive: 4.39% |
| O=c1[nH]c2ccc(NCc3ccc(-c4ccc(F)cc4)o3)cc2[nH]1 | inactive: -0.221% |
| CC1CCC(NC(=O)Cn2ncc3c4ccccc4n(Cc4ccc(F)cc4)c3c2=O)CC1 (configuration not stated) | inactive: -6.48% |
